Experimental findings from patent publication US20250059201A1, “CAMPTOTHECIN COMPOUND AND CONJUGATE THEREOF” (priority 2021, published 2025) are described below.

One assay deals with BxPC-3. Put plainly: Proliferation-inhibiting effect on tumor cells (SRB or MTT assay). In kind it is cell-based, human. Conditions: BxPC-3, 144 hours. The protocol: (§1) For cells growing by adherence, SRB assay was used to detect effect of antibody-drug conjugates or camptothecins on the proliferation of tumor cells in vitro cultured. A certain number of cells in exponential growth phase were inoculated in 96-well cell culture plates, and when the cells grew by adherence overnight, antibody drug conjugates or camptothecins of different concentrations were added into the cells. 144 hours later, the cells were fixed with trichloroacetic acid, and then stained with SRB (prepared in 1% glacial acetic acid at a concentration of 4 mg/mL). 10 mM Tris solution was added into each well to solubilize the bound SRB. OD values at 510 nm were read on a microplate reader.
(§2) Inhibition (%)=([…] of control well−OD value of dosed well)/OD value of control well×100%
(§3) For cells growing in suspension, MTT assay was used to detect effect of antibody-drug conjugates or camptothecins on the proliferation of tumor cells in vitro cultured. A certain number of cells in exponential growth phase were inoculated in 96-well cell culture plates, and when the cells grew in suspension overnight, antibody-drug conjugates or camptothecins of different concentrations were added into the cells. 144 hours later, MTT was added to each well of the plates, and the incubation was continued for 4 hours at 37° C. in a 5% CO2 saturated humidity incubator. Next, 100 μL of SDS-isobutanol-HCl solution was added into each well of the plates, and OD values at 570 nm and 690 nm were read on a microplate reader.
(§4) Half maximal inhibitory concentration (IC50) was calculated from the inhibition (%) at those different concentrations using the software Graphpad Prism 8.0. The experiment was repeated once and the data was expressed as mean±SD.
(Formazan colour is commonly taken as a measure of viable cells.)

The subject of a further assay is NCI-N87. The assay is described as above. In kind it is cell-based, human. Conditions: NCI-N87, 144 hours. The protocol:
as §1, §2, §3, §4

Assay [1] concerns Trop-2-positive BxPC-3 tumor cells. Put plainly: Binding activity to cells positive for Trop-2 (flow cytometry). Conditions: binding to BxPC-3 cells, on ice 1 hour, n = 2. The method, then:
Different concentrations (1, 3, 10, 30, 100, 300, 1000, 3000, 10000, 30000, and 100000 ng/mL) of fluorescently labeled Trop2-ADC-14 and the mAb in Trop2-ADC-14 (i.e., antibody h23-12) were incubated with BxPC-3 cells (purchased from: ATCC) on ice for 1 hour in dark, and then the cells were centrifuged to remove supernatant, washed with PBS, re-suspended, and the fluorescence intensity of the drugs bound to the cells was measured with a flow cytometer (BD ACCURI C6 PLUS). The experiment was repeated once.
(In general: Flow cytometry measures light scatter and fluorescence of single cells or particles in a stream.)

The test system of assay [2] is BxPC-3 cells positive for Trop-2 and HT-29 cells negative for Trop-2. Nature of the assay: Bystander effect of ADCs targeting Trop-2, co-culture. It counts as cell-based. Conditions: 144 hours. The method, then:
(§5) BxPC-3 cells (purchased from ATCC) positive for Trop-2 and HT-29 cells (purchased from ATCC) negative for Trop-2 were inoculated together, or the Trop-2-negative HT-29 cells were inoculated separately, in 6-well plates. […] Next, the cells were incubated with Dylight 488 NHS Ester labeled Trop2-ADC-14 on ice for 1 hour in dark, and then centrifuged to remove supernatant, re-suspended in PBS, washed with PBS three times, and cell proportions of BxPC-3 cells and HT-29 cells were detected and calculated using a flow cytometer BD ACCURI C6 PLUS, and the numbers of the two kinds of cells were calculated.

Assay [3] concerns Trop-2-negative HT-29 cells. Nature of the assay: Bystander effect study, Trop-2-negative cells separately cultured. It counts as cell-based. Conditions: HT-29 separately cultured, 144 hours. The method, then:
as §5

Where [4] appears, read: read-out: IC50 (nM) 1st experiment.
The mark [5] stands for this setting: read-out: IC50 (nM) 2nd experiment.

Like-named read-outs stand apart in the source and are kept apart here.

As a reminder, the IC50 is the concentration that inhibits the measured activity by half.

B1: Trop2-ADC-14 (conjugate)
heavy: QVQLVQSGAEVKKPGASVKVSCKASGYTFTSYWMHWVRQAPGQGLEWMGEITPSDNYGSYNQKFKGRVTITRDTSTSTAYMELSSLRSEDTAVYYCARGHGNYVSFDYWGQGTLVTVSSASTKGPSVFPLAPSSKSTSGGTAALGCLVKDYFPEPVTVSWNSGALTSGVHTFPAVLQSSGLYSLSSVVTVPSSSLGTQTYICNVNHKPSNTKVDKRV[not shown - human IgG1 Fc]
light: DIQMTQSPSSLSASVGDRVTITCRASQDISNYLNWYQQKPGKAPKLLIYYTSRLESGVPSRFSGSGSGTDFTLTISSLQPEDFATYFCQQGYTLPPYTFGQGTKLEIKRTVAAPSVFIFPPSDEQLKSGTASVVCLLNNFYPREAKVQWKVDNALQSGNSQESVTEQDSKDSTYSLSSTLTLSKADYEKHKVYACEVTHQGLSSPVTKSFNRGEC
Take B1: the IC50 in the assay on BxPC-3 (setting [4]) was determined as 0.09 nM; in the assay on BxPC-3 (setting [5]), 0.1 nM; in the assay with BxPC-3 (read-out: IC50 (nM) Mean ± SD), 0.09 ± 0.01 nM; in the assay with NCI-N87 (setting [4]) it was 0.4 nM; with NCI-N87 (setting [5]), 0.54 nM; in the assay on NCI-N87 (read-out: IC50 (nM) Mean ± SD), 0.47 ± 0.1 nM. In addition, the “EC50 (ng/mL, mean ± SD)” value in assay [1] came out at 1296.0 ± 155.6 ng/mL. The bystander effect entry in assay [2] (BxPC-3 and HT-29 inoculated together) was “strong bystander effect”. Further, the “bystander killing effect compared with DS-1062a” value in assay [2] (Trop2-ADC-14 at 30 ng/mL) is listed as “comparable to that of reference drug DS-1062a at 300 ng/mL”. Besides, the “effect on proliferation of the Trop-2-negative HT-29 cells separately cultured” value in assay [3] is “no obvious effect”.
